In PMC13034042:
Numbering of substitutions follows the chain as printed. Names may count otherwise. Results are given in words; binding and its absence hold for the method and conditions named. Some binding calls cover weakened binding; strength is not graded here. For some of these results: Sequences can lack the tags named with a protein.

Protein sequences, listed by entry. Tags and fused reporters are not part of them. Lines headed by an entry give the natural chain unless they say otherwise; changes in a name come on top.
UniProt Q12522: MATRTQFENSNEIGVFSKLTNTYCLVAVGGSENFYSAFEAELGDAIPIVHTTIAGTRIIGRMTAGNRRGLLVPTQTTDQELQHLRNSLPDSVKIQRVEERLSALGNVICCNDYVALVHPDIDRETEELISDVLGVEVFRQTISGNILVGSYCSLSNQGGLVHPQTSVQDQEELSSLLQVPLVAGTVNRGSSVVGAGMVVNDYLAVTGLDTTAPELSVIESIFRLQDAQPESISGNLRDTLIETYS
UniProt P14120: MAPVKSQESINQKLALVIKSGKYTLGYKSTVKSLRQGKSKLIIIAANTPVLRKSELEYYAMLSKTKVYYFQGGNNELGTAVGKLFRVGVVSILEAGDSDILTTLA
UniProt P0CX44: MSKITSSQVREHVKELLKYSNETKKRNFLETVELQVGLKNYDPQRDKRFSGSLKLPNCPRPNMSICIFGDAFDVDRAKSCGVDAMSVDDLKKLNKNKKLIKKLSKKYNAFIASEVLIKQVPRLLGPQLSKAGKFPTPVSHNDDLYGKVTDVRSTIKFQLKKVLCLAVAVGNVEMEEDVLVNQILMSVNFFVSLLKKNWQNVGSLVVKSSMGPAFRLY

How the values were obtained:
Assay in all cases: two-hybrid; Y2H in reporter strain PJ69-4A; G4BD bait and G4AD prey from monocopy plasmids (ADH1 promoter); growth on SC-HLT (HIS3) and SC-ALT (ADE2) plates, 3 days at 30°C
[1] = biological target: Tif6, full length, Y2H fusion (S. cerevisiae) (UniProt Q12522)
[2] = biological target: Gsp1.Q71L, Y2H bait (S. cerevisiae) (UniProt P32835)
[3] = biological target: Rpl30, Y2H bait (S. cerevisiae) (UniProt P14120)
[4] = biological target: Rpl1b, full length, Y2H fusion (S. cerevisiae) (UniProt P0CX44)
[5] = biological target: T1, Bcl1, full length, Y2H fusion (S. cerevisiae) (UniProt P53962)
T1 sequence: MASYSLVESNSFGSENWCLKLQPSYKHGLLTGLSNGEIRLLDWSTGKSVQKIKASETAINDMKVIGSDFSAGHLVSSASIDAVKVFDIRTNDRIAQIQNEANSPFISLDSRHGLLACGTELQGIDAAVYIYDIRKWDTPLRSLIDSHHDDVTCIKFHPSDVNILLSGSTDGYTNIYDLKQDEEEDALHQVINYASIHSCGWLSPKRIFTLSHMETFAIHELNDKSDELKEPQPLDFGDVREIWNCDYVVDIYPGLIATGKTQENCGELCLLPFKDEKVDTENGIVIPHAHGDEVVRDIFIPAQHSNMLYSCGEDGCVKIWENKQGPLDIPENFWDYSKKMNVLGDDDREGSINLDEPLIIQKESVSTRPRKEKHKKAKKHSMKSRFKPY

B1: Rei1.N66, Y2H fusion (domain or fragment, UniProt P38344 1-66)
chain: MSSSGVYTCNSCVLTFDSSDEQRAHMKSDWHRYNLKRRVAQLPPISFETFDSKVSAAAASTSKSAE
**Q.** For B1, which binding [1] is on record?
**A.** binds

B2: Reh1.N62, Y2H fusion (domain or fragment, UniProt Q06709 1-62)
chain: MSSTFFTCNCCVIQFKTSDLQRYHMKTEWHRYNLKRRIANLPPIGAEQFAEKLQISEKEQAE
**Q.** With B2 as the binder, how does the binding [1] read?
**A.** binds

B3: Kap121, full length, Y2H prey (protein, UniProt P32337 1-1089)
chain: MSALPEEVNRTLLQIVQAFASPDNQIRSVAEKALSEEWITENNIEYLLTFLAEQAAFSQDTTVAALSAVLFRKLALKAPPSSKLMIMSKNITHIRKEVLAQIRSSLLKGFLSERADSIRHKLSDAIAECVQDDLPAWPELLQALIESLKSGNPNFRESSFRILTTVPYLITAVDINSILPIFQSGFTDASDNVKIAAVTAFVGYFKQLPKSEWSKLGILLPSLLNSLPRFLDDGKDDALASVFESLIELVELAPKLFKDMFDQIIQFTDMVIKNKDLEPPARTTALELLTVFSENAPQMCKSNQNYGQTLVMVTLIMMTEVSIDDDDAAEWIESDDTDDEEEVTYDHARQALDRVALKLGGEYLAAPLFQYLQQMITSTEWRERFAAMMALSSAAEGCADVLIGEIPKILDMVIPLINDPHPRVQYGCCNVLGQISTDFSPFIQRTAHDRILPALISKLTSECTSRVQTHAAAALVNFSEFASKDILEPYLDSLLTNLLVLLQSNKLYVQEQALTTIAFIAEAAKNKFIKYYDTLMPLLLNVLKVNNKDNSVLKGKCMECATLIGFAVGKEKFHEHSQELISILVALQNSDIDEDDALRSYLEQSWSRICRILGDDFVPLLPIVIPPLLITAKATQDVGLIEEEEAANFQQYPDWDVVQVQGKHIAIHTSVLDDKVSAMELLQSYATLLRGQFAVYVKEVMEEIALPSLDFYLHDGVRAAGATLIPILLSCLLAATGTQNEELVLLWHKASSKLIGGLMSEPMPEITQVYHNSLVNGIKVMGDNCLSEDQLAAFTKGVSANLTDTYERMQDRHGDGDEYNENIDEEEDFTDEDLLDEINKSIAAVLKTTNGHYLKNLENIWPMINTFLLDNEPILVIFALVVIGDLIQYGGEQTASMKNAFIPKVTECLISPDARIRQAASYIIGVCAQYAPSTYADVCIPTLDTLVQIVDFPGSKLEENRSSTENASAAIAKILYAYNSNIPNVDTYTANWFKTLPTITDKEAASFNYQFLSQLIENNSPIVCAQSNISAVVDSVIQALNERSLTEREGQTVISSVKKLLGFLPSSDAMAIFNRYPADIMEKVHKWFA
**Q.** How did the binding [2] turn out when B3 was run?
**A.** binds

B4: Kap119, full length, Y2H prey (protein, UniProt P46970 1-1048)
chain: MDITELLQCFACTLDHNAAVRTNAETHLKNASKVPGFLGACLDIIAADEVPENIKLSASLYFKNKITYGWSAGARQGSNELLDSHVDPDEKPVVKDMLIKTMVSVSKTSPRCIRVLKSALTVIISEDYPSKKWGNLLPNSLELLANEDITVTYVGLLCLAEIFRTYRWKNNDERQDLEELILNYFPALLNYGANVLFQDGKYMNNEQIGELVKLIIKIYKFVSYHDLPFTLQRSESFTPWACFFVSIIQQPLPQEVLAISDIEVRSKNPWVKCKKWALANLYRLFQRYASTSLTRKFQYDEFKQMYCEEFLTQFLQVVFDQIEKWGTGQLWLSDECLYYILNFVEQCVVQKTTWKLVGPHYNVILQHVIFPLLKPTAETLEAFDNDPQEYINRNMDFWDVGYSPDLAALALLTTCVTKRGKTTLQPTLEFMVSTLQSAVGDYNNIMLDNALQIESCLRIFSSIIDRLITKDSPFASEMEKFILTYVLPFFKSQYGFLQSRVCDICSKLGSMDFKDPVITSTIYEGVMNCLNNSSNSLPVELTAALALQTFISDDQFNMKLSEHVVPTMQKLLSLSNDFESDVISGVMQDFVEQFAEQLQPFGVELMNTLVQQFLKLAIDLHETSNLDPDSFTNVDSIPDESDKQMAALGILSTTISILLSFENSPEILKNLEQSFYPAAEFILKNDIEDFYRECCEFVENSTFLLRDITPISWKILELIGECNRKPDSMVSYYLSDFMLALNNILIYGRNELKKNEFYTKIIFEIYQKAVTAEDNSLDDLRVVFDLSQELVLALDDSLPQQYRERLLADVVGSILTQKNELKTNVVFSVTAFNVVISNMITEPLITLQYLKQQGCLEIFFQTWITDYIPNYKRCYDIKLSVLALLKIILKLESNDYSVLNLENLVPQLGSIVTQLASRLPTALRQLANQRKEFSSSGFEEDTKWDENFLDVGDDDENDDEGDLTEKYLELIKNRADSLDFVDGYDAKETFDDLEEDPLTGSILDTVDVYKVFKESIANLQHVDSNRYQGILRHLTPADQELFMGIMNA
**Q.** For B4, which binding [2] is on record?
**A.** binds weakly

B5: Kap119.289C, Y2H prey (domain or fragment, UniProt P46970 289-1048)
chain: ASTSLTRKFQYDEFKQMYCEEFLTQFLQVVFDQIEKWGTGQLWLSDECLYYILNFVEQCVVQKTTWKLVGPHYNVILQHVIFPLLKPTAETLEAFDNDPQEYINRNMDFWDVGYSPDLAALALLTTCVTKRGKTTLQPTLEFMVSTLQSAVGDYNNIMLDNALQIESCLRIFSSIIDRLITKDSPFASEMEKFILTYVLPFFKSQYGFLQSRVCDICSKLGSMDFKDPVITSTIYEGVMNCLNNSSNSLPVELTAALALQTFISDDQFNMKLSEHVVPTMQKLLSLSNDFESDVISGVMQDFVEQFAEQLQPFGVELMNTLVQQFLKLAIDLHETSNLDPDSFTNVDSIPDESDKQMAALGILSTTISILLSFENSPEILKNLEQSFYPAAEFILKNDIEDFYRECCEFVENSTFLLRDITPISWKILELIGECNRKPDSMVSYYLSDFMLALNNILIYGRNELKKNEFYTKIIFEIYQKAVTAEDNSLDDLRVVFDLSQELVLALDDSLPQQYRERLLADVVGSILTQKNELKTNVVFSVTAFNVVISNMITEPLITLQYLKQQGCLEIFFQTWITDYIPNYKRCYDIKLSVLALLKIILKLESNDYSVLNLENLVPQLGSIVTQLASRLPTALRQLANQRKEFSSSGFEEDTKWDENFLDVGDDDENDDEGDLTEKYLELIKNRADSLDFVDGYDAKETFDDLEEDPLTGSILDTVDVYKVFKESIANLQHVDSNRYQGILRHLTPADQELFMGIMNA
**Q.** How did the binding [3] turn out when B5 was run?
**A.** binds

B6: Kap119.328C, Y2H prey (domain or fragment, UniProt P46970 328-1048)
chain: GQLWLSDECLYYILNFVEQCVVQKTTWKLVGPHYNVILQHVIFPLLKPTAETLEAFDNDPQEYINRNMDFWDVGYSPDLAALALLTTCVTKRGKTTLQPTLEFMVSTLQSAVGDYNNIMLDNALQIESCLRIFSSIIDRLITKDSPFASEMEKFILTYVLPFFKSQYGFLQSRVCDICSKLGSMDFKDPVITSTIYEGVMNCLNNSSNSLPVELTAALALQTFISDDQFNMKLSEHVVPTMQKLLSLSNDFESDVISGVMQDFVEQFAEQLQPFGVELMNTLVQQFLKLAIDLHETSNLDPDSFTNVDSIPDESDKQMAALGILSTTISILLSFENSPEILKNLEQSFYPAAEFILKNDIEDFYRECCEFVENSTFLLRDITPISWKILELIGECNRKPDSMVSYYLSDFMLALNNILIYGRNELKKNEFYTKIIFEIYQKAVTAEDNSLDDLRVVFDLSQELVLALDDSLPQQYRERLLADVVGSILTQKNELKTNVVFSVTAFNVVISNMITEPLITLQYLKQQGCLEIFFQTWITDYIPNYKRCYDIKLSVLALLKIILKLESNDYSVLNLENLVPQLGSIVTQLASRLPTALRQLANQRKEFSSSGFEEDTKWDENFLDVGDDDENDDEGDLTEKYLELIKNRADSLDFVDGYDAKETFDDLEEDPLTGSILDTVDVYKVFKESIANLQHVDSNRYQGILRHLTPADQELFMGIMNA
**Q.** With B6 as the binder, how does the binding [3] read?
**A.** binds

B7: Bcl1.N325, Y2H fusion (domain or fragment, UniProt P53962 1-325)
chain: MASYSLVESNSFGSENWCLKLQPSYKHGLLTGLSNGEIRLLDWSTGKSVQKIKASETAINDMKVIGSDFSAGHLVSSASIDAVKVFDIRTNDRIAQIQNEANSPFISLDSRHGLLACGTELQGIDAAVYIYDIRKWDTPLRSLIDSHHDDVTCIKFHPSDVNILLSGSTDGYTNIYDLKQDEEEDALHQVINYASIHSCGWLSPKRIFTLSHMETFAIHELNDKSDELKEPQPLDFGDVREIWNCDYVVDIYPGLIATGKTQENCGELCLLPFKDEKVDTENGIVIPHAHGDEVVRDIFIPAQHSNMLYSCGEDGCVKIWENKQG
**Q.** With B7 as the binder, how does the binding [4] read?
**A.** binds

B8: Bcl1.323C, Y2H fusion (domain or fragment, UniProt P53962 323-389)
chain: KQGPLDIPENFWDYSKKMNVLGDDDREGSINLDEPLIIQKESVSTRPRKEKHKKAKKHSMKSRFKPY
**Q.** With B8 as the binder, how does the binding [4] read?
**A.** no binding

B9: Acl1 Y47A variant, Y2H fusion (protein, UniProt P25631 1-222)
chain: MNANIWVAASDGNLDRVEHILRESKGAMTPQSKDINGYTPMHAAAAAGHLDLLKKMCNEYNGDINVLDNDGDTPLHHVEDVATARLIVEELGGDFTIRNVEGQTPYDSFVENGEDGELIEYMRIKSGVADVHGVDGVQGEGVIDSKLLEEFKDNVRYTLENDPEEGADEATLQRRRQLEQIITGDNAEEELERYIRAMVREQMLGQGSMAGSGDEPDSKRRK
**Q.** Which binding [5] does the source give for B9 here?
**A.** no binding

B10: Acl1 D70A variant, Y2H fusion (protein, UniProt P25631 1-222)
chain: B9 chain with A47Y, D70A
**Q.** With B10 as the binder, how does the binding [5] read?
**A.** no binding

B11: Acl1 D72A variant, Y2H fusion (protein, UniProt P25631 1-222)
chain: B9 chain with A47Y, D72A
**Q.** How did the binding [5] turn out when B11 was run?
**A.** no binding

B12: Acl1 D34A variant, Y2H fusion (protein, UniProt P25631 1-222)
chain: B9 chain with D34A, A47Y
**Q.** With B12 as the binder, how does the binding [5] read?
**A.** no binding

B13: Acl1 D68A variant, Y2H fusion (protein, UniProt P25631 1-222)
chain: B9 chain with A47Y, D68A
**Q.** For B13, which binding [5] is on record?
**A.** no binding
